Assay results reported in the supplement of paper PMC11417369.
Some of the results follow.

What follows are sequences tested on PF3D7_0420300 AP2 domain 1 (GST-tagged) (assay: gcPBM binding intensity (ln(normalized median fluorescence intensity)); higher = stronger DNA binding).
In short: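 Using an Agilent 4 × 180k array, primer-extended double-stranded 36-bp intergenic genomic probes and negative controls were exposed for 1 h to GST-fused P. falciparum DNA-binding domains expressed in E. coli. Binding was carried out in 1× PBS with 1% milk, 0.2 mg/ml BSA, 0.5% salmon testes DNA and 0.03% Triton X-100, and protein was detected with Alexa488 anti-GST antibody and a 488 nm scan. Binding intensity is the highest Masliner-normalised natural-log median intensity across replicate spots of either probe orientation.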

Row | Sequence | gcPBM binding intensity (ln)
1 | ATTTGTTTAAGTCACGAACACACATATATCATCAAT [CACACA_site985] | 9.41
2 | ATTATTTACCACAACACACAAATATTTACCAATCAT [CACACA_site5472] | 9.68
3 | AATATAATATATTGCACACAAAAAGTGAATTATTCT [CACACA_site1684] | 9.39
4 | GTTTATTAGGAATTATGTACACAGTTTTATAAAGAA [XGTACX_site2994] | 9.14
5 | TCATTATATTATTCTTGTACTTATATCCTTTTTTGA [XGTACX_site5320] | 9.42
6 | TAAAAGTTCACCTGTACACACATATATATCTGTACA [CACACA_site5019] | 9.56
7 | CAAAATATTATCATGATGCACTTTACACTCTAAGGT | 9.17
8 | AAAAAATAAAAGTGGGGTACATGTCATTATGTGCAT [XGTACX_site3753] | 9.68
9 | TTTTCATTCTTTTCCTTTGATTTACAATAGTATATT [GTGCAC_negctrl_site687] | 9.33
10 | ATATTATGTCTACATAAACACACATATATATAAAAA [CACACA_site7976] | 9.38
11 | AATAGTTATAAATATAAATATATATATATATATATA [CACACA_negctrl_site414] | 8.96
12 | TTACCATAAGTATGTGGTACACTTTAAATGAAGATA [XGTACX_site6972] | 8.88
13 | AATAAATATTCATTTTGTACATATTTTTCGTATATG [XGTACX_site6104] | 9.26
14 | TTAACATCAAAATATGCACACAAACAATTAGCGGTA [CACACA_site8801] | 9.63
15 | TATATATATAAATACACACACACCCTAAAAATATAT [CACACA_site4970] | 10.1
16 | TCATATTTTACATATGCATGTTAATAATACAAACAT [TGCATGCA_site994] | 9.01
17 | TTTTTTTCGTATATTACACACTATAAATAGAAATTA [CACACA_site6278] | 9.14
18 | ATTTATTTATGTATTTGTACGTATATATTTATGCAT [XGTACX_site5218] | 9.52
19 | GTATAACAACTGATAAAAGAAAAAAAATTTATTATT [CACACA_negctrl_site377] | 9.07
20 | ATAATATTTTTAAACTGTACTTTTATAAACACTTAT [XGTACX_site2625] | 9.28
21 | ATTTTAAATATTTGTGGTACCCCTTTTTTGTAACAA [XGTACX_site5590] | 9.27
22 | CAAAATTGAAGGAACACACATACATATATATATATG [CACACA_site179] | 9.6
23 | TAAAAAAGAACAGAAACACACAAATAAAATAAAATT [CACACA_site1758] | 10

Row | Sequence | gcPBM binding intensity (ln)
24 | CTTTGTGGTATAGATACACACTATATTAATATGAAC [CACACA_site7081] | 9.31
25 | AAATAAAAAGGGTGCACACAAAAATATATATATATA [CACACA_site1728] | 9.55
26 | ATGTTTGATGCTACACGTACACACCTTGCAAATATT [XGTACX_site1644] | 9.62
27 | TATATTATTCATTAAGCACACATTATTTTTATAATA [CACACA_site6056] | 9.24
28 | TTTTTTTTTTTTTTTACACACACAAAATATTATATG [CACACA_site2471] | 9.43
29 | TATTATTTACCTTGCTAGTTCGTTCCAAATTTTATG [XGTACX_negctrl_site197] | 9.61
30 | AAAACTATAATAAAAGGTACACATTTATTTTTTTCT [XGTACX_site730] | 9.29
31 | AAAACAAATTTTAATGAGAATATGAAAAAAAAATAT [XGTACX_negctrl_site268] | 9.23
32 | TATTCTAATATATGCATACACACAAATGTGAATATA [CACACA_site2143] | 9.33
33 | CACATTATGTATCATACACACAAATAAATATAGAAT [CACACA_site609] | 9.79
34 | TTTATATGTATTAAGTGTACACATATAATGTGTTTT [XGTACX_site4890] | 9.34
35 | AAAAAAAAAAAAAGAACATGCGACTTTAAGAACTGG [TGCATGCA_site792] | 9.37
36 | TAAAAAATTATATATTGTACGAATGCATAAAAAAAA [XGTACX_site4606] | 9.25
37 | TATGAAAATAAAATATGTACATATTTTAAATGTTAT [XGTACX_site7352] | 9.18
38 | CAAATGTGTTCTTCAGGTACAGATACACATTTATGA [XGTACX_site2664] | 9.12
39 | CACCATGTTAACAAAGCATGCATCTCTATAGTTTTA [TGCATGCA_site97] | 9.26
40 | TTCAATGCTAATTTATGTACATATGTATATAAAATA [XGTACX_site8335] | 8.9
41 | AAAATATATATTTGTTGTACAATATTAATTATTAAA [XGTACX_site1612] | 8.94
42 | CCCAAAAAAAATTTATGTACTTATTAAATATATATA [XGTACX_site6455] | 9.05
43 | TTTATATAAATTTAAGTGCAAAATGAACAAGTGAAA | 9.35
44 | TGCAAAGGTGAAAGAACACACAAAAAAAAAAAAAAA [CACACA_site4024] | 8.93
45 | AATTTTAGATTTAGCACACATTTTTTTTTTTTTTTT [CACACA_site6105] | 9.17
46 | TTTTTAATCTCATATGTATAATATATTTTTATTAAA [XGTACX_negctrl_site236] | 8.96

Row | Sequence | gcPBM binding intensity (ln)
47 | TTCAAAGGGAAATTAACACACACATATATATATATA [CACACA_site8777] | 9.53
48 | GTAATTATTAATAAAACATGCGTATAAAATTTTCTC [TGCATGCA_site50] | 9.18
49 | TCTTTTTTTAATAAAACATGCAATATTATATATGTA [TGCATGCA_site236] | 8.97
50 | AAAAAAATATATATATATATATATATATATTTATAT [XGTACX_negctrl_site86] | 8.83
51 | AGTGACACCAAAGGGGTGCAATGAAATTAAAAATAT | 9.01
52 | TTTATTCATTTCTAAAAATATTAAAATAGAATGAAT [CACACA_negctrl_site325] | 8.88
53 | AAACAAAAAATATATACACACTAAACATAAAAAAAA [CACACA_site4185] | 9.83
54 | TAAAAAAAAATAAATGGTACACAATTAAATGTTTAT [XGTACX_site5255] | 9.34
55 | ATATACTATATATAATGTACATATATATTATTATGC [XGTACX_site2957] | 9.18
56 | ATAAGAAAATCAAAAAGTACTTTTTACAAAGATAAA [XGTACX_site824] | 9.13
57 | TAGTTTTTTATATATTGTACAAATAATATATTATAT [XGTACX_site2564] | 9.19
58 | ATTTTATGATATATTTGTACTTAACATTTGGATATA [XGTACX_site5888] | 9.22
59 | ACATATTCATATGGAAGTACGATAATGTAGTCATAT [XGTACX_site7080] | 9.37
60 | ATATATACATACAAATTAATTACGAGGAATATATTA [XGTACX_negctrl_site417] | 9.36
61 | TATATATATTTAAAGGTGCAGATGCCAGTGTATATT | 9.38
62 | AATGAACTCACGAGCACACACACACCGATATATATA [CACACA_site4710] | 10
63 | ATAAATATATTTAAATGTACATAATATATATATATA [XGTACX_site5137] | 9.05
64 | GGAACTTATTTTTATACACACATATGTGCATATTAT [CACACA_site629] | 9.68
65 | GTAAAAAAATTAAAAATTAACAAGGAATTAAGTATA [CACACA_negctrl_site1688] | 9.26
66 | TATACATATATATACACACACACATATATATATATA [CACACA_site1299] | 9.95
67 | ATCATAAATATAGCAACACACGGATTACATAAAATA [CACACA_site2796] | 9.73
68 | TTGTAATAAATAAAAGTGCAGATATGGTTCCACTAA [GTGCAC_site9942] | 9.17
69 | TTAAAAAAATAATTAACACACACATGTATATCTATA [CACACA_site9026] | 9.6

Row | Sequence | gcPBM binding intensity (ln)
70 | TTTGCGTAGAAATGTGTGCACTGATATTTATAATAA [GTGCAC_site9526] | 9.29
71 | TGAACTCATAGGAAAACACACATATGGGTAATATAT [CACACA_site187] | 9.6
72 | ATTTTCCTTTTACCACGTACACATAAAAACGTTATA [XGTACX_site3595] | 9.4
73 | AAAAAAAATCAAATGGGTACTTATTCTTAATAATAT [XGTACX_site3792] | 9.12
74 | TATGAAATTAGAATTACACACAGGAAAATAAAATGC [CACACA_site6822] | 9.96
75 | TGAATAAATATATATACACACATATCTGTATTTATT [CACACA_site4991] | 9.55
76 | TATATATATACCAACACACATACATATATATATATA [CACACA_site1795] | 9.46
77 | AAATTTGGCAGACACACACACACACGCACACGCACA [CACACA_site6423] | 10.3
78 | CCCTCCCCATGTTTAGTGCAAAAATATTTGAAATTG [GTGCAC_site9873] | 10.2
79 | AGGTATGTCTATAAATGTACATATGAGTTCAATTTC [XGTACX_site2244] | 9.11
80 | CACAGTGATATAAAAACACACATGAATTCTAATTTC [CACACA_site6884] | 9.37
81 | CATAAAAATATTAATAAACACACAATCAGATATTGA [CACACA_site9032] | 9.66
82 | AAATATATATAAACAAGTACATATTTAAAAAAAGGA [XGTACX_site2631] | 9.44
83 | ATAACACAAAATTGTTGTACACGTGTTAATAAGTGA [XGTACX_site4452] | 9.53
84 | ATATATATGAAACACACACACAAAAAAAAAAAAAAA [CACACA_site3647] | 9.69
85 | TAAAGTTATGCAATAACACACATATACAATACATAT [CACACA_site6698] | 9.64
86 | AATATTTATATAAATGCATGCTGATACAACAGTCTT [TGCATGCA_site21] | 9.25
87 | ATATTACGCACAAAAAAAAAAAAAAAAAAAAAAAAA [CACACA_negctrl_site941] | 8.77
88 | ATGATGTGCTTTAAAAGTACTTAAGTTATATTCTTT [XGTACX_site7127] | 9.27
89 | AAAATTAAAATTTTCACACAGATATATTTACAATTT [CACACA_site5692] | 9.1
